Test results: PubChem BioAssay AID651820 (National Center for Advancing Translational Sciences (NCATS), 2012)
The whole screen tested about 340,000 compounds, of which about 12,000 (3.5%) were called active. The inconclusive results got no clear call from the source; some entries with a clear call stand among them for comparison. The call rests on the fitted dose curve; in most records, active means well fitted inhibition curve with a large enough effect; inconclusive means small, poorly fitted or top-dose-only effect, or another doubt; inactive means no such curve, though single readings can be large or run the other way. No potency is given beside an inconclusive call; the fits are too rough.
On the % scale 0 is the no-effect control and ±100 the full control effect; potency means the concentration at half of the fitted maximal effect; tags describe the fitted curve by direction and shape.

Test: qHTS Assay for Inhibitors of Hepatitis C Virus (HCV)
Details: Huh7.5.1 HCVcc-Cre (HCVcc is cell-culture hepatitis C virus) infection, luciferase reporter, 44 h; activity change, negative = inhibition: at 41.8 µM (top of the series)
Method in brief: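 A cell-based infection assay in which seeded cells (1,000 per well) receive test compound after 4 h, are inoculated with HCVcc-Cre at approximately 0.5 moi, and are incubated 44 h before luminescence detection.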
With Cc1ccc(C2CC(c3cccs3)=NN2C(=O)c2ccc(Br)o2)cc1 (stereo not given) the Potency was inconclusive [inhibitor, single point].
For CCCSc1nc2c(cnn2-c2ccc(Cl)cc2)c(=O)[nH]1, the “activity change, negative = inhibition” value was inactive: -22.2%.
For CC1Oc2ccccc2N(CC(=O)N2CCCCCC2)C1=O (stereo not given), the Potency was inconclusive [inhibitor, single point].
For CCOc1ccc2c(c1)nc(SCC(=O)c1ccc(Br)s1)n2C, the Potency was inconclusive [inhibitor, full curve].
In the case of Cc1cc(NC(=O)/C(C#N)=C/c2ccc(-c3cccc(C(F)(F)F)c3)o2)n(-c2ccccc2)n1, the Potency is reported as inconclusive [inhibitor, partial curve].
For COC(=O)N/N=C/c1ccc(-c2cccc(Cl)c2)o1, the “activity change, negative = inhibition” value was inactive: -20.8%.
In the case of Cc1noc(C)c1S(=O)(=O)N1CCC(C(=O)N2CCN(Cc3ccc4c(c3)OCO4)CC2)CC1, the Potency is reported as inconclusive [inhibitor, full curve, poor fit].
In the case of O=C(O)c1ccc2c3c(cccc13)C(=O)N(c1cccc3ccccc13)C2=O, the “activity change, negative = inhibition” value is reported as inactive: -1.45%.
In the case of CCOC(=O)[C@H]1[C@H]2COc3ccc(Br)cc3[C@H]2N2C(=O)CN(CCc3c[nH]c4ccccc34)C(=O)[C@@]12C, the “activity change, negative = inhibition” value is reported as inactive: 1.45%.
In the case of CN1CCN(C(=O)CNC(=O)C23CC4CC(CC(C4)C2)C3)CC1, the “activity change, negative = inhibition” value is reported as inactive: -6.85%.
In the case of Cn1c(N)c(C(=O)COC(=O)c2cc(S(=O)(=O)NCc3ccccc3)ccc2O)c(=O)n(C)c1=O, the “activity change, negative = inhibition” value is reported as inactive: 11.9%.
For COCCNc1c2c(nc3ccccc13)CCC2, the Potency was inconclusive [inhibitor, single point].
For O=C(NCc1cccnc1)Nc1ccc2c(c1)OCO2, the “activity change, negative = inhibition” value was inactive: 11.4%.
In the case of COC(=O)c1ccc(NC(=O)CCc2nnc3ccc(N4CCC5(CC4)OCCO5)nn23)cc1, the “activity change, negative = inhibition” value is reported as inactive: 6.23%.
For O=C(N/N=C/c1sc2ccccc2c1O)c1ccccc1, the Potency was active: 4.47 µM.
For O=C(/C=C(\O)c1ccc(Cl)cc1)C(=O)NNC(=O)C(O)(c1ccccc1)c1ccccc1, the Potency was inconclusive [inhibitor, single point].
For CC1(c2ccc(OC(F)F)cc2)NC(=O)N(CC(=O)c2ccc3c(c2)OCO3)C1=O (stereo not given), the activity change, negative = inhibition was inconclusive: -67.7% [inhibitor].
For CCOc1cc(C2CC(=O)N3CN(C4CCCCC4)CSC3=C2C#N)ccc1O (stereo not given), the Potency was inconclusive [inhibitor, full curve].
In the case of Cc1ccc(CNC(=O)[C@H](C)[C@H]2C[C@]2(C)[C@H](NC(=O)OCc2ccccc2)c2ccccc2)o1, the activity change, negative = inhibition is reported as inactive: -10.2% [at 8.37 µM].
For CCOc1ccc(/C=N/NC(=O)C(=O)N2CCCCCC2)c2ccccc12, the Potency was inconclusive [inhibitor, single point].
In the case of CNc1nc2c(N)ncnc2n1[C@H]1O[C@@H](CO)[C@H](O)[C@@H]1O, the Potency is reported as inconclusive [inhibitor, single point].
In the case of COc1ccccc1CN1CCC(CNS(=O)(=O)c2cc(-c3cc(C)no3)ccc2C)CC1, the Potency is reported as inconclusive [inhibitor, partial curve].
For CCOc1ccc(C(C)NC(=S)NCc2ccc(Cl)cc2)cc1 (stereo not given), the Potency was inconclusive [inhibitor, single point].
With Cn1c(=O)c2c(nc(Oc3ccc4c(c3)OCO4)n2Cc2ccc(F)cc2)n(C)c1=O the Potency was “inactive”.
For CC(C)[C@H](NC(=O)N1CCn2c1nc1ccccc12)C(=O)NC1CC1, the Potency was inconclusive [inhibitor, single point].
For CCOC(=O)c1c(C)[nH]c(C)c1C(=O)COC(=O)c1ccc(S(=O)(=O)N(CC)CC)cc1, the Potency was active: 25.1 µM.
For COc1ccc(NC(=O)CSc2nc(C)cs2)c(OC)c1, the “activity change, negative = inhibition” value was inactive: -21%.
In the case of c1ccc(N/N=C(\Cc2ncc[nH]2)c2ccccc2)cc1, the “activity change, negative = inhibition” value is reported as inactive: -29.7%.
For COc1cccc(NC(=O)[C@H](CC(C)C)NC(=O)N2CCn3c2nc2ccccc23)c1, the “activity change, negative = inhibition” value was inactive: -16.5%.
With Cc1ccc(NC(=O)COC(=O)C2CC(=O)N(Cc3ccccc3)C2)cc1S(=O)(=O)N(C)C (stereo not given) the “activity change, negative = inhibition” value was inactive: 25%.
In the case of CCOC(=O)C1(CCOc2ccccc2)CCN(Cc2ccc(C)s2)CC1, the Potency is reported as inconclusive [inhibitor, single point].
With CC1(C)CC(=O)C2=C(C1)NC(Nc1nc3ccccc3o1)=NC2c1ccccn1 (stereo not given) the Potency was inconclusive [inhibitor, single point].
With CCOC(=O)C(NC(=O)c1ccccc1Cl)(Nc1sc2c(c1C(N)=O)CCC2)C(F)(F)F (stereo not given) the “activity change, negative = inhibition” value was inactive: -2.57%.
In the case of CC(=O)OC1(C)CC(C)C(=O)C(C(O)CC2CC(=O)NC(=O)C2)C1 (stereo not given), the Potency is reported as active: 0.501 µM.
With O=[N+]([O-])c1cccc(S(=O)(=O)N2CCc3ccccc3C2)c1 the “activity change, negative = inhibition” value was inactive: -4.78%.
With Fc1ccc(-c2cc(C(F)(F)C(F)F)[nH]n2)cc1 the activity change, negative = inhibition was inconclusive: -40.6% [inhibitor].
In the case of COc1ccccc1OCc1nc(-c2ccc([N+](=O)[O-])cc2)no1, the Potency is reported as inconclusive [inhibitor, single point].
For COc1cc2c(cc1OC)C(C)N(C(=O)c1cc3c(s1)-c1c(C)cccc1OC3)CC2 (stereo not given), the Potency was inconclusive [inhibitor, partial curve].
With CCN1CCN(CCCN(Cc2ccco2)C(=S)Nc2ccccc2Cl)CC1 the Potency was inconclusive [inhibitor, partial curve].
In the case of O=C(CN1CCN(S(=O)(=O)c2cc(Cl)ccc2Cl)CC1)Nc1ccc2c(c1)OCCO2, the Potency is reported as inconclusive [inhibitor, single point].
In the case of O=c1[nH]c(C2CCN(S(=O)(=O)c3cccc([N+](=O)[O-])c3)CC2)nc2c1nnn2Cc1ccccc1, the “activity change, negative = inhibition” value is reported as inactive: 7.24%.
In the case of COc1cc2c(ccc3cc(OC)c(OC)c(O)c32)cc1O, the Potency is reported as inconclusive [inhibitor, single point].
With COc1cccc(S(=O)(=O)NCc2ccc(C(=O)Nc3ccc(Cl)cc3)cc2)c1 the Potency was inconclusive [inhibitor, single point].
For COc1ccccc1Nc1nc(-c2sc(NC(=O)CC(C)C)nc2C)cs1, the Potency was inconclusive [inhibitor, single point].
In the case of O=C(NCCN1C(=O)S/C(=C\c2cccc(Cl)c2Cl)C1=O)C1=COCCO1, the Potency is reported as inconclusive [inhibitor, full curve, poor fit].
